According to patent publication US20250255874A1, “Methods for Treating Immune Thrombocytopenia By Administering (R)-2-[3-[4-Amino-3-(2-Fluoro-4-Phenoxy-Phenyl)Pyrazolo[3,4-D]Pyrimidin-1-YL]Piperidine-1-Carbonyl]-4-Methyl-4-[4-(Oxetan-3-YL)Piperazin-1-YL]Pent-2-Enentrile” (Principia Biopharma Inc., priority 2022, published 2025):

Tests used:
[1] = system: rat collagen-induced arthritis model; assay: rat collagen-induced arthritis model; conditions: in vivo
[2] = preclinical reproductive toxicity studies; conditions: in vivo
[3] = humans, oral administration; cited from earlier work

In the case of `CC(C)(C=C(C#N)C(=O)N1CCC[C@@H](n2nc(-c3ccc(Oc4ccccc4)cc3F)c3c(N)ncnc32)C1)N1CCN(C2COC2)CC1` [rilzabrutinib, (R)-2-[3-[4-amino-3-(2-fluoro-4-phenoxy-phenyl)pyrazolo[3,4-d]pyrimidin-1-yl]piperidine-1-carbonyl]-4-methyl-4-[4-(oxetan-3-yl)piperazin-1-yl]pent-2-enenitrile], the anti-inflammatory effects [1] is given as “rapid and significant anti-inflammatory effects”, the “harm to fetal development or male fertility” value [2] is given as “not expected to harm fetal development or male fertility” and the half-life [3] is given as 3 to 4 h.
